Out of some 150,000 compounds screened, about 180 (0.12%) were called active. The inconclusive results got no clear call from the source; some entries with a clear call stand among them for comparison. Calls come from the whole dose curve; as a rule, active = well fitted cell-killing curve with a large enough effect; inconclusive = small, poorly fitted or top-dose-only effect, or effect the other way; inactive = flat fitted curve, though single readings scatter. Potencies beside an inconclusive call are fits to weak or partial responses and may not hold up.
test: GF-AFC viability counterscreen for inhibitors of alpha-synuclein gene (SNCA) expression; settings: HEK-293-SNCA-luc viability, GF-AFC fluorescence, 24 h; activity change, negative = cytotoxicity: at 57.1 µM (top of the series) unless noted; note: nearly all actives have a fitted effect of over 30% in size;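 for activity change, negative = cytotoxicity: 0% = DMSO-treated cells and -100% = medium-only wells without cells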
Outline: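 Cytotoxicity counterscreen: after 24 h compound treatment of genome-edited SNCA-luciferase HEK-293 cells, live-cell protease substrate GF-AFC read by fluorescence after 30 min; activity scaled between DMSO (0%) and medium-only (-100%), curves Hill-fitted.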
Potency is the fitted concentration of half-maximal effect; tags give direction and shape of the fitted curve.

| Structure (SMILES) | Potency | activity change, negative = cytotoxicity |
| --- | --- | --- |
| COc1ccccc1-c1cccc(CN2CCCC(C(=O)NCCCc3ccccc3)C2)c1 (centres undefined) | inconclusive: 39.8 µM [cytotoxic, partial curve, poor fit] |  |
| Cc1ccc(NC(=O)N2CCc3c(c4ccccc4n3C)C2)cc1 | inactive |  |
| CCOc1cccc2sc(=NC(=O)c3ccc(S(=O)(=O)N4CCOCC4)cc3)n(C)c12 | inconclusive: 1 µM [rising, full curve, poor fit] |  |
| COc1ccc(CCNC(=O)C2CN(C(C)C)C(=O)N2)cc1 (centres undefined) | inconclusive: 12.6 µM [cytotoxic, single point] |  |
| COc1ccc(CN2CCNc3cc(Nc4ccccc4)ncc3C2)cc1 |  | inconclusive: -31.2% [cytotoxic] [at 87.6 µM] |
| CN1C(=O)c2ccc(NC(=O)Cn3nc4c(cc3=O)CCCC4)cc2C1=O | inactive |  |
| COc1ccc(CCC(=O)N[C@@H]2CN(c3ncccn3)C[C@H]2CN(C)C)cc1 | inactive |  |
| O=C(N[C@H]1CO[C@H]2[C@@H]1OC[C@@H]2Nc1nccc(C2CCCC2)n1)c1ccccc1 | inconclusive: 44.7 µM [cytotoxic, single point] |  |
| CN(C)CCc1c[nH]c2ccc(Cn3cncn3)cc12 | inconclusive: 10.8 µM [cytotoxic, full curve] |  |
| O=C(c1cc2ccccc2[nH]1)N1CCC2(C1)NC(=O)N(Cc1ccc(F)cc1)C2=O (centres undefined) | inactive |  |
| CCCCN(CCCNC(=O)c1cc(Nc2ccc(OC)cc2OC)nc2ccccc12)Cc1ccccc1 | inconclusive: 31.6 µM [cytotoxic, single point] |  |
| Cc1cn2nc(C(=O)Nc3ccccc3C)cc2c(N2CCSCC2)n1 | inconclusive: 11.2 µM [rising, partial curve, poor fit] |  |
| COc1ccccc1CNC(=O)[C@H]1CN(C(C)C)C[C@H]1C(=O)O | inconclusive: 5.62 µM [cytotoxic, single point] |  |
| COc1ccc(Cl)cc1NC(=O)C1CCCN(S(=O)(=O)c2ccc3c(c2)CCCC(=O)N3)C1 (centres undefined) | inconclusive: 25.1 µM [cytotoxic, single point] |  |
| CCC1(N2CCN(S(=O)(=O)c3ccc(C(F)(F)F)cc3)CC2)CCN(C(=O)NC)C1 (centres undefined) | inconclusive: 3.16 µM [cytotoxic, partial curve, poor fit] |  |
| CCCn1c2ccccc2c2cnn(CC(=O)Nc3ccccc3OC)c(=O)c21 | inconclusive: 2.24 µM [rising, partial curve, poor fit] |  |
| COc1ccc(NC(=O)CSc2nc3ccccc3n2CC(=O)NCc2ccc(F)cc2)cc1 | inconclusive: 39.8 µM [cytotoxic, single point] |  |
| CCC1=Nc2cc(C(=O)NCCc3ccccc3)ccc2Sc2ccc(Cl)cc21 | inconclusive: 20 µM [cytotoxic, single point] |  |
| Cc1cc(C(=O)Nc2cc(Oc3ccc4nc(NC(=O)C5CC5)cn4n3)ccc2C)n(C)n1 | inconclusive: 0.0377 µM [cytotoxic, single point] |  |
| Cc1ccc(CC(=O)N2CCN(c3cc(-c4cccs4)[nH]n3)CC2)cc1 | inactive |  |
| Cc1nc2scc(CC(=O)NCCC(C)C)n2c(=O)c1-c1cc(C)n(-c2ccccc2F)n1 | inactive |  |
| Cc1cc(=O)n(CC(=O)Nc2ccc(C)c(Cl)c2)c(N2CCc3ccccc3C2)n1 | inactive |  |

| Structure (SMILES) | Potency | activity change, negative = cytotoxicity |
| --- | --- | --- |
| O=[S+]([O-])(c1ccccc1)N1CCNc2cnc(Nc3cccc(F)c3)nc2C1 | inconclusive: 22.4 µM [cytotoxic, partial curve, poor fit] |  |
| COc1ccc(C(=O)NCC(c2cccnc2)N2CCc3ccccc3C2)cc1 (centres undefined) | inconclusive: 22.4 µM [cytotoxic, single point] |  |
| COc1ccccc1-c1[nH]nc2ncc(C(=O)NCCc3ccccn3)nc12 | inconclusive: 56.2 µM [rising, single point] |  |
| COc1cccc(N2C(=O)NC(=NC3CCCC3)C23CCN(Cc2ccc(N(C)C)cc2)C3)c1 (centres undefined) | inconclusive: 20 µM [cytotoxic, partial curve, poor fit] |  |
| Cc1ccc([S+](=O)([O-])N2CCC3(CCN(Cc4cccs4)c4ccccc4O3)CC2)cc1 | inconclusive: 39.8 µM [cytotoxic, single point] |  |
| COc1ccc(-c2noc(-c3ncn4c3COC(c3ccc(F)cc3)C4)n2)c(OC)c1 (centres undefined) | inconclusive: 17.8 µM [cytotoxic, partial curve, poor fit] |  |
| COc1ccc(C=Cc2cc(OC)c(OC)c(OC)c2)cc1NC(=O)[C@H](N)CO | inconclusive: 0.0171 µM [cytotoxic, full curve, poor fit] |  |
| CC1(COc2ccccc2)COc2ccc(C(=O)NC3CCC(O)CC3)cc2N1 (centres undefined) | inactive |  |
| COc1ccc(NCc2nc3ccccc3n2CCOc2ccccc2C)cc1 | inconclusive: 39.8 µM [cytotoxic, single point] |  |
| CC(=O)N1CCC(NC[C@@H]2C=C(C)[C@H](Cc3nc4ccccc4[nH]3)C[C@H]2C(C)C)CC1 | inconclusive: 31.6 µM [cytotoxic, partial curve, poor fit] |  |
| O=C(NCc1ccccc1Cl)c1csc(N2CCN(c3ccc(F)cc3)CC2)n1 | inconclusive: 11.2 µM [cytotoxic, partial curve, poor fit] |  |
| CCCC(=O)N(c1ccc2oc3c(c2c1)CCCC3)S(=O)(=O)c1ccc(CC)cc1 | inconclusive: 6.31 µM [rising, single point] |  |
| O=C(c1ccc(F)cc1)N1CCC(C(=O)N2CCC(c3nc4ncccc4[nH]3)C2)CC1 (centres undefined) | inactive |  |
| Cc1cc(C)c2[nH]c(CN3CCC(N)C3)cc(=O)c2c1 (centres undefined) | inconclusive: 39.8 µM [cytotoxic, single point] |  |
| COc1ccc(CNC(=O)c2cnn(-c3ccc(C)cc3)c2C2CCN(C(=O)OC(C)(C)C)CC2)cc1 | inconclusive: 39.8 µM [cytotoxic, single point] |  |
| O=C1COCC2(CN1Cc1cccc(OC(F)(F)F)c1)CN(c1ccccn1)C2 | inactive |  |
| COc1ccc(-n2c(=O)cnc3cnc(N(C)C)nc32)cc1 | inconclusive: 28.2 µM [cytotoxic, partial curve] |  |
| Clc1ccc(-c2cc3c(cn2)CN(Cc2ccncc2)CCN3)cc1 | inactive |  |
| CC1=C[C@@H](CN2CCN(c3ncccn3)CC2)[C@H](C(C)C)C[C@H]1Cc1nnc(-c2ccc(N(C)C)cc2)o1 | inconclusive: 25.1 µM [cytotoxic, single point] |  |
| CC(C)NC(=O)c1nc(C(C)(C)C)c2cnccn12 | inactive |  |
| CCOc1cccc(NC(=O)CSc2ncc(-c3ccc(Cl)cc3)[nH]2)c1 | inconclusive: 5.62 µM [rising, partial curve] |  |
| O=c1c(-c2ccc(F)cc2)nc2cnc(N3CCNCC3)nc2n1Cc1ccc(F)cc1 | inconclusive: 15.8 µM [rising, partial curve, poor fit] |  |

| Structure (SMILES) | Potency | activity change, negative = cytotoxicity |
| --- | --- | --- |
| COc1ccc(N2CCN(CC(O)COc3ccc(C)c(C)c3)CC2)cc1 (centres undefined) | inactive |  |
| CCOC(=O)c1cccc(NC(=O)N2Cc3ccccc3Oc3ncccc32)c1 | inconclusive: 35.5 µM [cytotoxic, single point] |  |
| CCOc1ccc(Br)cc1C1C(C(=O)Nc2ccccc2OC)=C(C)Nc2nnnn21 (centres undefined) | inconclusive: 22.4 µM [cytotoxic, single point] |  |
| CCN1C(C(=O)c2ccccc2)=C(OC(=O)c2ccc(Cl)cc2)c2ccccc2S1(=O)=O | inconclusive: 35.5 µM [cytotoxic, single point] |  |
| O=C(NCc1ccccn1)c1ccc2nnc(-c3ccc(OC(F)(F)F)cc3)n2c1 | inactive |  |
| O=C(Nc1cccc(-c2nnc3n2CCCC3)c1)C1CCCC1 | inactive |  |
| CC(C)NC(=O)c1cc(-c2ccc(F)cc2)c2nncn2n1 | inactive |  |
| O=C(NCC1CCOCC1)Nc1ccc(F)cc1 | inactive |  |
| COc1cccc(C(O)c2nc(C(=O)N3CCN(c4ccccn4)CC3)c(C)o2)c1 (centres undefined) | inactive |  |
| CCOC(=O)c1ccc(N2C(=O)c3n[nH]c(-c4ccco4)c3C2c2cccc(F)c2)cc1 (centres undefined) | inconclusive: 7.94 µM [cytotoxic, full curve, poor fit] |  |
| COc1cc(-c2ccnc3nc(Cc4ccc(F)cc4)nn23)cc(OC)c1OC | inconclusive: 31.6 µM [cytotoxic, single point] |  |
| C=C1C(=O)O[C@@H]2/C=C(\CO)CC/C=C(/C=O)C[C@H](O)[C@@H]12 | inconclusive: 37.7 µM [cytotoxic, single point] |  |
| C1CC(COCCc2noc(C3CNC3)n2)CCO1 | active: 4.47 µM |  |
| COc1ccc(C(=O)N2CCCCC23Cc2ccccc2NC3=O)cc1 (centres undefined) | inconclusive: 5.01 µM [cytotoxic, full curve] |  |
| COc1ccc(C(=O)c2cn(Cc3ccc(F)cc3)c3c(F)cc(F)cc3c2=O)cc1 | inconclusive: 3.55 µM [cytotoxic, full curve, poor fit] |  |
| c1cncc(Nc2cc3c(cn2)CN(CC2CCOCC2)CCN3)c1 | inactive |  |
| O=C(CN1C(=O)COc2ccc(S(=O)(=O)N3CCCCCC3)cc21)N1CCN(c2cccc(Cl)c2)CC1 | inconclusive: 39.8 µM [cytotoxic, single point] |  |
| COc1ccc(CCNC(=O)c2cc3n(n2)CC(c2ccc4c(c2)OCO4)OC3)cc1OC (centres undefined) | inconclusive: 39.8 µM [cytotoxic, single point] |  |
| CC(C)(C)c1ccc(C(=O)Nc2ccc3nc(SCC(=O)N4CCCC4)sc3c2)cc1 | inconclusive: 0.794 µM [cytotoxic, partial curve, poor fit] |  |
| O=C(CSc1nc(-c2ccccc2)[nH]c1-c1ccc(F)cc1)NC1CCCC1 | inconclusive: 35.5 µM [cytotoxic, single point] |  |
